According to the supplement of paper PMC11417369:
± gives the standard deviation of the averaged measurements. The list shows a part of the results.

What follows are sequences tested on PfAP2-G AP2 domain (GST-tagged) (assay: gcPBM binding intensity (ln(normalized median fluorescence intensity)); higher = stronger DNA binding).
How it was run: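 After 1 h on an Agilent 4 × 180k array of primer-extended double-stranded 36-bp intergenic genomic probes and negative controls, bound GST-tagged P. falciparum DNA-binding domains were detected with Alexa488 anti-GST antibody and scanned at 488 nm. The domains had been expressed in E. coli, and binding took place in 1× PBS with 1% milk, 0.2 mg/ml BSA, 0.5% salmon testes DNA and 0.03% Triton X-100. Binding intensity is the highest Masliner-normalised natural-log median intensity across replicate spots of either probe orientation.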

Sequence	gcPBM binding intensity (ln)
AAAAGAAAATTAAATTAACACACATAAATATATATA [CACACA_site8482]	9.72 ± 0.16
TTCACATACAGAAACACACACATATTTATAAATTAA [CACACA_site7699]	9.98 ± 0.16
ATTATTTAATTTTATTAAAAAAAAACAAATTAACAG [GTGCAC_negctrl_site152]	9.98 ± 0.3
TATTATTTTTCCTAATGTACAAAATATATATTTTTA [XGTACX_site2727]	10.6 ± 0.28
TTTGAATATATAAATATGCACACTTCTATTATAAAT [CACACA_site3359]	9.92 ± 0.042
TTCTTATATAAATACACACACAAAATATCTACAATG [CACACA_site4568]	10.27 ± 0.099
AATCGATTGGATAATATTTTTTCTCTTAATTTTTTG [GTGCAC_negctrl_site165]	9.725 ± 0.092
AAAAAAATAAAAAGGAACGTCTATAGTTAATTTATT [CACACA_negctrl_site919]	9.96 ± 0.2
ATGTTGCACAATGTTACACACACAATATATATCGTT [CACACA_site4833]	10.3 ± 0.16
TATATTAGAAGAAATTCACACATTCATGTAATCTTA [CACACA_site4706]	9.52 ± 0.16
AAAAAAAACAGACACACACACAAATACATACACAAA [CACACA_site705]	10.2 ± 0.15
CCATTTACAAAAAGGAGTACACAAATATATGTTTAA [XGTACX_site649]	11.6 ± 0.93
TTTTTTTTGTTGTTGTTGCACTTGATAGGAATGGCT [GTGCAC_site9701]	10.2 ± 0.4
TACAAATATGGACACACACACATATTTATATTTATA [CACACA_site6420]	11.1 ± 0.67
AAAAAACAGACATACACACACACACGGATATTTATA [CACACA_site7570]	10.1 ± 0.11
ATATAAATGTATATGACACACATATATATATATATA [CACACA_site889]	10.2 ± 0.3
AATATTTATGGGTGCACACAAACATACAGATATATA [CACACA_site5810]	10.7 ± 0.52
TATATATATATCAAGTGTACTTGTGTTTGTAATATT [XGTACX_site8854]	11.4 ± 1
TACTTACAGATAATAACACACAAGAAAAAAATAAAA [CACACA_site4716]	10 ± 0.17
TATATCAAAATACATACACACATTTGTATATACATT [CACACA_site2696]	9.925 ± 0.021
TTAAATATTTTTAGAGTGCATGTAATAAAAATATAA [GTGCAC_site9414]	10.2 ± 0.26
TATATACAGAAACACACACACACATATATATATATA [CACACA_site2247]	10.1 ± 0.27
TATCTATATGGGAACACACTCATAAATATATATCTA [CACACA_site4815]	10.1 ± 0.13
TATATTTATTTATATACACACACTTGTATAAAAAAT [CACACA_site2036]	10.1 ± 0.23
TTTTAAAAATAATAAATAAATAAAATTGAAGTTCCA [CACACA_negctrl_site305]	9.63 ± 0.014
AAAATAAATAAATACACACACACGAATATATATATA [CACACA_site1683]	10.1 ± 0.33
AAAATTTTTAAATATTGTACTATTTATTTTTAGCAT [XGTACX_site6190]	11.2 ± 0.69
GCCTACAGACTTAGTAGTACATGAGAAGATATATAT [XGTACX_site2269]	11.5 ± 1.1
AATATGAACGGACACACACACACAAAAAAAAAAAAA [CACACA_site5154]	10.9 ± 0.87
TATATATATATATTTACACACATTCATATAAATTCA [CACACA_site3532]	9.83 ± 0.28
